Measured values taken from the supplement of paper PMC8728848.
The other results are listed elsewhere or left out.

Assays:
Experiment in all cases: glycan array binding signal (z-score within array); higher = stronger binding
Conditions in all cases: glycan notation: IUPAC condensed, linker removed
Neu5Ac(a2-8)Neu5Ac = biological target: Neu5Ac(a2-8)Neu5Ac
Outline: (§1)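 The Consortium for Functional Glycomics database supplied 3228 glycan arrays, of which those lacking an available protein sequence were dropped. The binding signal, a within-array Z-score, was averaged across arrays of the same protein sequence and across linkers. Negative scores can be read as non-binding.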

[1] = biological target: Neu5Ac(a2-8)Neu5Ac(a2-3)Gal(b1-3)GalNAc(b1-4)[Neu5Ac(a2-3)]Gal(b1-4)Glc
Outline: as §1

[2] = biological target: Neu5Ac(a2-8)Neu5Ac(a2-3)Gal(b1-3)GalNAc(b1-4)[Neu5Ac(a2-8)Neu5Ac(a2-3)]Gal(b1-4)Glc
Outline: as §1

[3] = biological target: Neu5Ac(a2-8)Neu5Ac(a2-3)Gal(b1-4)Glc
Outline: as §1

[4] = biological target: Neu5Ac(a2-8)Neu5Ac(a2-3)Gal(b1-4)GlcNAc
Outline: as §1

[5] = biological target: Neu5Ac(a2-8)Neu5Ac(a2-3)[Gal(b1-3)GalNAc(b1-4)]Gal(b1-4)Glc
Outline: as §1

[6] = biological target: Neu5Ac(a2-8)Neu5Ac(a2-3)[GalNAc(b1-4)]Gal(b1-4)Glc
Outline: as §1

[7] = biological target: Neu5Ac(a2-8)Neu5Ac(a2-8)Neu5Ac
Outline: as §1

[8] = biological target: Neu5Ac(a2-8)Neu5Ac(a2-8)Neu5Ac(a2-3)Gal(b1-4)Glc
Outline: as §1

[9] = biological target: Neu5Ac(a2-8)Neu5Ac(a2-8)Neu5Ac(a2-3)[Gal(b1-3)GalNAc(b1-4)]Gal(b1-4)Glc
Outline: as §1

[10] = biological target: Neu5Ac(a2-8)Neu5Ac(a2-8)Neu5Ac(a2-3)[GalNAc(b1-4)]Gal(b1-4)Glc
Outline: as §1

[11] = biological target: Neu5Ac(a2-8)Neu5Ac(a2-8)Neu5Ac(a2-8)Neu5Ac(a2-3)[GalNAc(b1-4)]Gal(b1-4)Glc
Outline: as §1

[12] = biological target: Neu5Ac(a2-8)Neu5Gc(a2-3)Gal(b1-4)GlcNAc
Outline: as §1

[13] = biological target: Neu5Ac(b2-6)Gal(b1-4)GlcNAc
Outline: as §1

Neu5Ac(b2-6)GalNAc = biological target: Neu5Ac(b2-6)GalNAc
Outline: as §1

[14] = biological target: Neu5Ac9Ac(a2-3)Gal(b1-3)GlcNAc
Outline: as §1

[15] = biological target: Neu5Ac9Ac(a2-3)Gal(b1-4)GlcNAc
Outline: as §1

[16] = biological target: Neu5Ac9Ac(a2-6)Gal(b1-4)GlcNAc
Outline: as §1

[17] = biological target: Neu5Gc(a2-3)Gal(b1-3)GlcNAc
Outline: as §1

[18] = biological target: Neu5Gc(a2-3)Gal(b1-3)[Fuc(a1-4)]GlcNAc
Outline: as §1

Neu5Gc(a2-3)Gal(b1-4)Glc = biological target: Neu5Gc(a2-3)Gal(b1-4)Glc
Outline: as §1

[19] = biological target: Neu5Gc(a2-3)Gal(b1-4)GlcNAc
Outline: as §1

[20] = biological target: Neu5Gc(a2-3)Gal(b1-4)GlcNAc(b1-3)Gal(b1-4)GlcNAc(b1-2)Man(a1-3)[Neu5Gc(a2-3)Gal(b1-4)GlcNAc(b1-3)Gal(b1-4)GlcNAc(b1-2)Man(a1-6)]Man(b1-4)GlcNAc(b1-4)GlcNAc
Outline: as §1

[21] = biological target: Neu5Gc(a2-3)Gal(b1-4)[Fuc(a1-3)]GlcNAc
Outline: as §1

[22] = biological target: Neu5Gc(a2-6)Gal(b1-4)GlcNAc
Outline: as §1

Neu5Gc(a2-6)GalNAc = biological target: Neu5Gc(a2-6)GalNAc
Outline: as §1

[23] = biological target: Neu5Gc(a2-8)Neu5Ac(a2-3)Gal(b1-4)GlcNAc
Outline: as §1

[24] = biological target: Neu5Gc(a2-8)Neu5Gc(a2-3)Gal(b1-4)GlcNAc
Outline: as §1

[25] = biological target: Neu5Gc(a2-8)Neu5Gc(a2-3)Gal(b1-4)GlcNAc(b1-3)Gal(b1-4)GlcNAc
Outline: as §1

[26] = biological target: Neu5Gc(a2-8)Neu5Gc(a2-6)Gal(b1-4)GlcNAc
Outline: as §1

[27] = biological target: Neu5Gc(b2-6)Gal(b1-4)GlcNAc
Outline: as §1

B1: GNL (Galanthus nivalis) (protein)
chain: MGHHHHHHHHYGTLENGHWLMVGMSIFSKDRTVELRMQDDGKLAIYYNDHCAWQSTAQQVNNAKGAVMQGDGNFCIYDKNGKATWHTNTAAPSGDSHTFVSVQDDGNLVLYKNNGATPIWSSKSNK
Neu5Ac(a2-8)Neu5Ac
  glycan array binding signal (z-score): -0.189
[1]
  glycan array binding signal (z-score): -0.285
[2]
  glycan array binding signal (z-score): -0.164
[3]
  glycan array binding signal (z-score): -0.235
[4]
  glycan array binding signal (z-score): -0.236
[5]
  glycan array binding signal (z-score): -0.165
[6]
  glycan array binding signal (z-score): -0.133
[7]
  glycan array binding signal (z-score): -0.183
[8]
  glycan array binding signal (z-score): -0.273
[9]
  glycan array binding signal (z-score): -0.228
[10]
  glycan array binding signal (z-score): -0.162
[11]
  glycan array binding signal (z-score): -0.297
[12]
  glycan array binding signal (z-score): -0.208
[13]
  glycan array binding signal (z-score): -0.268
Neu5Ac(b2-6)GalNAc
  glycan array binding signal (z-score): -0.311
[14]
  glycan array binding signal (z-score): -0.295
[15]
  glycan array binding signal (z-score): -0.239
[16]
  glycan array binding signal (z-score): -0.211
[17]
  glycan array binding signal (z-score): -0.289
[18]
  glycan array binding signal (z-score): -0.257
Neu5Gc(a2-3)Gal(b1-4)Glc
  glycan array binding signal (z-score): -0.224
[19]
  glycan array binding signal (z-score): -0.202
[20]
  glycan array binding signal (z-score): 0.079
[21]
  glycan array binding signal (z-score): -0.282
[22]
  glycan array binding signal (z-score): -0.213
Neu5Gc(a2-6)GalNAc
  glycan array binding signal (z-score): -0.125
[23]
  glycan array binding signal (z-score): -0.26
[24]
  glycan array binding signal (z-score): -0.248
[25]
  glycan array binding signal (z-score): -0.254
[26]
  glycan array binding signal (z-score): -0.194
[27]
  glycan array binding signal (z-score): -0.22
